From paper PMC4336329 (PLoS ONE, 2015)
Among all 310,000 compounds or so, about 14,000 (4.5%) showed an effect of 50% or more. The effect is printed as a negative number. Some of the results follow.

Target: human ether-à-go-go-related gene (hERG) potassium channel (human, UniProt Q12809)
Experiment: primary screen, population patch clamp on CHO cells stably expressing hERG
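Further: peak tail current of the secondary pulse compared with the same well before compound.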

Chain of human ether-à-go-go-related gene (hERG) potassium channel (Q12809 whole entry, looked up): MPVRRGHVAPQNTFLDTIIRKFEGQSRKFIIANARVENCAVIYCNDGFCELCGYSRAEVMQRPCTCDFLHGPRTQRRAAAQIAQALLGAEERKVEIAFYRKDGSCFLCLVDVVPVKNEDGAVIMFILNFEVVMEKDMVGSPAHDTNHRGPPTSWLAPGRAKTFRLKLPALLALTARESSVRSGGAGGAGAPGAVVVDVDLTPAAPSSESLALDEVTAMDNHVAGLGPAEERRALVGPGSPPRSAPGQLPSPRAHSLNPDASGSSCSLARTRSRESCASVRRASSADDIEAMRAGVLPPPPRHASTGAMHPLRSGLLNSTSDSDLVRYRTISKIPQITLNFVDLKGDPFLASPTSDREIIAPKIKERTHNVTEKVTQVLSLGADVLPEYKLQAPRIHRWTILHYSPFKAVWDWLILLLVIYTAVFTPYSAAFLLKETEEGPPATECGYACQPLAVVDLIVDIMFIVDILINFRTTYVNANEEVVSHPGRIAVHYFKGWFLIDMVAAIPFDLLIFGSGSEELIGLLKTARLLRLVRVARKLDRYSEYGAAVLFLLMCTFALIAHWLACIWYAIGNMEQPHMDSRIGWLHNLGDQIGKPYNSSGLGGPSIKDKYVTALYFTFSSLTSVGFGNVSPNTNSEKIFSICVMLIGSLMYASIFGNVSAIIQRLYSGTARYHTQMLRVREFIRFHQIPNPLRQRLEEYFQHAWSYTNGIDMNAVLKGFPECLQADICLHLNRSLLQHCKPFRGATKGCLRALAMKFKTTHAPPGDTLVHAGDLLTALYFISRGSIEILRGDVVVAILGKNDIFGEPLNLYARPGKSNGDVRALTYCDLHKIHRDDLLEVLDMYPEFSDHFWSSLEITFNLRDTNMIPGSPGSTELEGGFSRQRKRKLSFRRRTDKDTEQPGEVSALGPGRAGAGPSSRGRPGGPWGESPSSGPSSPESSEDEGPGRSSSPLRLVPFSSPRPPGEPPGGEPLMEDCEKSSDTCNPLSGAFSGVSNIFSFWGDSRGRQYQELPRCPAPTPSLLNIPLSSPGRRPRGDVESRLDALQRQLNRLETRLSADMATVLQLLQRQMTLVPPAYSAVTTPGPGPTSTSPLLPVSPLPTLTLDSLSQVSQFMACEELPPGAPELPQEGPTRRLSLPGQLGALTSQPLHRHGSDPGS

SMILES	hERG current change (%, negative = inhibition) at 10uM
CN(C)CCCN(C(=O)c1ccc(N2C(=O)CCC2=O)cc1)c1nc2c(F)cccc2s1.Cl	-0.103%
COc1ccc(CCNC(=O)COc2cc(O)c3c(c2)OC(C)(C)CC3=O)cc1	-31.3%
COc1ccc(-c2cc(C(F)(F)F)n3ncc(C(=O)O)c3n2)cc1OC	8.39%
CCCn1c(CNc2ccccc2O)nc2ccccc21	-5.21%
CCN(Cc1cnn(C)c1)Cc1nc(C2(c3ccc(C)cc3)CCCC2)no1	-19.5%
Cc1sc2nc3ccc(NCc4ccco4)nn3c(=O)c2c1C	-21.7%
COc1ccc(C(C(=O)NC(C)(C)C)N(C(=O)CCC(=O)Nc2cc(C)on2)c2cccc(F)c2)cc1 (centres unmarked)	9.26%
COc1ccc(C(C(=O)NCC2CCCO2)N(Cc2ccco2)C(=O)c2snc(C(N)=O)c2N)cc1OC (centres unmarked)	0.649%
COc1ccccc1OCC(=O)N1CCCC(Nc2cccc(F)c2)C1 (centres unmarked)	-1.55%
CC(C)Oc1ccc(Nc2ncnc3ccccc23)cc1.Cl	-46.7%
C[C@H]1CN=C(N(C)C)N1CCC1CCCC1	8.34%
CCN(CC)c1ccc2c(C)c(Cl)c(=O)oc2c1	-14.4%
CCCSc1nc2ccsc2c(=O)n1CC	11.7%
Cc1ccc(NC(=O)Nc2sc(=S)n(C)c2C)cc1	15.4%
COc1cccc(CC(=O)NC2CCCN(Cc3ccc(Cl)cc3)C2)c1 (centres unmarked)	-26.3%
CCOC(=O)Nc1nnc(/C=C/c2ccc(OC)cc2)s1	-1.68%
Cc1cccc(OCCC(=O)Nc2ccccc2C(N)=O)c1	8.57%
CC(=O)Cc1nsc(NC(=O)c2ccc(COc3ccccc3Cl)o2)n1	2.65%
COc1ccc2c(C)cc(N3CCOCC3)nc2c1	-7.7%
CCOC(=O)C1=C(COC(=O)CCOc2ccccc2C)NC(=O)NC1C (centres unmarked)	-28.4%
COc1ccc(CN2CCN(CCCc3ccccc3)C(CCO)C2)c(O)c1 (centres unmarked)	-83.1%
COC(C/C=C/C(=O)[C@H](C)OCc1ccccc1)OC	15.8%

SMILES	hERG current change (%, negative = inhibition) at 10uM
COc1ccc(-n2nc([N+](=O)[O-])c(=NCc3ccc4c(c3)OCO4)n2O)cc1	2.64%
CC(=O)c1cn(N(C)c2ncc(C(F)(F)F)cc2Cl)c(=O)[nH]c1=O	4.84%
Cc1ccc(OCCNC(=O)c2cccc(C)c2)cc1	1.64%
CC(C)CNC(=O)COC(=O)c1cc(S(=O)(=O)N(C)C)ccc1N1CCCC1	-13.2%
COC(=O)Cn1c(CN2CCOCC2)nc2c1c(=O)[nH]c(=O)n2C	3.43%
COc1ccc(Cn2c(-c3ccc(OC)cc3)n[nH]c2=S)cc1	20%
CCOCCCNS(=O)(=O)c1ccc(NC(=O)c2ccc(OC)c([N+](=O)[O-])c2)cc1	22.3%
Cc1cc2c(cc1S(=O)(=O)N1CCN(c3ccccc3)CC1)OCC(=O)N2	-8.37%
O=C(NCCC1=CCCCC1)C1CCCN(S(=O)(=O)c2cccnc2)C1 (centres unmarked)	-11.2%
CCN(CC)C(=O)CSC(Nc1cccc(F)c1)=C(C#N)C#N	16%
COc1ccccc1-c1ccc(SCC(=O)NCc2ccc3c(c2)OCO3)nn1	-6.04%
O=C(CCN1CCOCC1)Nc1cc(C(=O)Nc2ccccc2F)ccc1N1CC2CC(C1)c1cccc(=O)n1C2 (centres unmarked)	11.8%
Nc1nnc(CCN2C(=O)CSC2=O)s1	13.9%
O=C(N/N=C/c1cn(-c2ccccc2)nc1-c1cccs1)c1ccncc1	-10.2%
COc1ccc(OCC(=O)Nc2ccc3c(c2)nc(CCN2CCC(C)CC2)n3C)cc1	-75.4%
O=C(COC(=O)C1CC2C=CC1C2)NCc1ccccc1Cl (centres unmarked)	-0.904%
Cc1nnc(SCC(=O)NNC(=O)COc2ccc(Br)cc2)n1C	-11.3%
O=C1NC(=O)N(c2ccc(Cl)cc2)C(=O)/C1=C\c1ccc(Sc2nc3ccccc3[nH]2)o1	-65.6%
COCCN(C(=O)CSc1nnc(-c2cccs2)n1N)c1c(N)n(Cc2ccccc2)c(=O)[nH]c1=O	0.15%
c1ccc(Nc2ccccn2)nc1	7.19%
O=C(O)c1n[nH]c2ccccc12	-4.09%
Cc1cc(NC(=O)COC(=O)COc2ccc(Cl)cc2C)c([N+](=O)[O-])cc1C	4.42%
